# Measured values as given in paper PMC6919601, “Identification of Plasmodium dipeptidyl aminopeptidase allosteric inhibitors by high throughput screening” (PLoS ONE, 2019).
# Values joined by “and” are separate entries in the source; they are usually repeats but may differ in a detail not shown here. Equal entries are not always repeated. Out of some 110,000 compounds screened, about 230 (0.21%) showed an effect of 50% or more. This is one part of the list.
# Target: DPAP1 (Plasmodium falciparum, UniProt Q8IIJ9)
# Sequence (Q8IIJ9 whole entry, looked up): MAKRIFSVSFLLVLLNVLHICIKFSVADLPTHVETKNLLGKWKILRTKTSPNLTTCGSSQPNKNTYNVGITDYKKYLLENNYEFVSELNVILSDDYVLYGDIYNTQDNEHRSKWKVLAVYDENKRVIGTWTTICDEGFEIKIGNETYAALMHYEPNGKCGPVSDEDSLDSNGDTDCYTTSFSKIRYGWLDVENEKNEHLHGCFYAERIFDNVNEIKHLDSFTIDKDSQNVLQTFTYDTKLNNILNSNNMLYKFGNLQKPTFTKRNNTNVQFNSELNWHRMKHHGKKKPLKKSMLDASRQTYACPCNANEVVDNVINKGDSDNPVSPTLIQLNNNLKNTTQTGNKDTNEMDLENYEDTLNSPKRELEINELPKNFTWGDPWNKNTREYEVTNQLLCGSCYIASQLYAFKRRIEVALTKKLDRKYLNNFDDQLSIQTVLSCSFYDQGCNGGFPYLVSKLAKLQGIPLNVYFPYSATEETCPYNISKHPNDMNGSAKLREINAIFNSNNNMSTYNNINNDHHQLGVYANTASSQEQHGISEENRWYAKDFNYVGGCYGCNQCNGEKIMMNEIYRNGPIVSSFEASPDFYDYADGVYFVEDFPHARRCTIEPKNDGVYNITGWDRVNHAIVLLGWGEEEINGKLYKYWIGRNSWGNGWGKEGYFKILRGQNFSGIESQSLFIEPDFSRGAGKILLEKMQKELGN
# Assay: primary screen, percent inhibition; read by cleavage of a fluorogenic dipeptide substrate; higher = more effect of the substance
# Set-up: species or system P. falciparum D10 trophozoite lysates; single well
# 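Further: 30 min substrate incubation versus DMSO and 10 µM JCP410 controls.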
row,SMILES,% Inhibition @ 10 uM
1,Cc1cc2c(c(=O)o1)C(c1ccc(F)c(F)c1)C(C#N)=C(N)O2 (stereo not shown),0.847%
2,COc1ccccc1N1CCN(C2CCN(Cc3ccccc3)CC2)CC1,-3.27%
3,O=C(NC1CCCC1)C1CCN(S(=O)(=O)c2ccccc2)CC1,-1.92%
4,CN(C(=O)c1cnc2ccc(S(=O)(=O)N3CCC4(CC3)OCCO4)cc2c1O)C1CCCCC1,-7.57%
5,COc1ccc(Oc2nc3ccccn3c(=O)c2/C=C(\C#N)C(=O)N2CCOCC2)cc1,4.06%
6,Cc1ccc(Cn2nc(C)c(NC(=O)C(F)(F)F)c2C)cc1,6.1%
7,O=C(Nc1nc2ccccc2s1)c1cc2c(s1)-c1ccc(Cl)cc1S(=O)(=O)C2,-4.24%
8,Cc1cccc(-n2nc3c(c2NC(=O)c2ccc(C(C)(C)C)cc2)CS(=O)(=O)C3)c1C,10.3%
9,CCOc1ccc2nc(SCc3c(C(=O)OC)nnn3-c3nonc3N)sc2c1,19.4%
10,COc1ccccc1N(CC(=O)N1CCc2ccccc2C1)S(C)(=O)=O,2.44%
11,Cc1c(CNCCC2=CCCCC2)c(C(=O)O)c(C)n1Cc1ccccc1,4.53%
12,O=C(CCn1c(=O)c2cccn2c2cccnc21)N1CCN(c2ccccn2)CC1,7.87%
13,Cc1cc(C)n(-c2ccc(C(=O)NC(C)C)cc2)n1,2.08%
14,CN(CCNC(=O)CCCN1C(=O)C(c2ccccc2)Oc2cccnc21)C1CCCCC1 (stereo not shown),-2.68%
15,CC(C)(C)c1ccc(C2C(C#N)=C(N)Oc3[nH]nc(-c4cccnc4)c32)cc1 (stereo not shown),0.722%
16,CCCCN1CN=C(Nc2nc(C)c3cc(OCC)ccc3n2)NC1,-3.13%
17,CC(C)(C)c1cc(C(F)(F)F)nc(N)n1,-1.59%
18,CC1CC(C)CN(C(=O)C(Cc2ccccc2)n2cccc2)C1 (stereo not shown),-2.42%
19,O=C(CCc1nnc2ccc(N3CCOCC3)nn12)N1CC=C(c2ccccc2)CC1,0.842%
20,O=C(CN1C(=O)S/C(=C/c2c[nH]c3ccccc23)C1=O)N1CCOCC1,19.6%
21,CC(=O)Nc1ccc(NC(=O)c2ccc(C)c(C)c2)cc1,-6.66%
22,Cn1c(=O)c2c(nc(N3CCCCCC3)n2Cc2ccccc2F)n(C)c1=O,3.69%
23,CCCn1c(C(O)c2cccc3ccccc23)nc2ccccc21 (stereo not shown),-4.98%
24,Cc1csc(NC(=O)CSc2nc(N)c(C#N)cc2C#N)n1,0.0719%
25,Cc1oc(-c2ccc(C(=O)N3CCN(C)CC3)cc2)nc1CS(=O)(=O)c1ccccc1,-8.88%

row,SMILES,% Inhibition @ 10 uM
1,Cc1c(Cc2ccccc2)sc(NC(=O)C2CC2)c1C(N)=O,-0.173%
2,CCC(C)NC(=O)c1cc(-c2ccco2)nc2ccccc12 (stereo not shown),-13.3%
3,COc1ccc(-c2cc(OC(=O)c3ccc(C)cc3)c3c(C)oc(C)c3c(=O)c2)cc1OC,-6.64%
4,Cn1c2ccccc2c2cnn(CC(=O)NCCc3ccc(Cl)cc3)c(=O)c21,-3.67%
5,O=C1c2cccc3c(O)c(-c4ccccc4)c(O)c(c23)C(=O)N1c1ccccc1,-1.06%
6,CCC1CCCCN1S(=O)(=O)c1ccccc1[N+](=O)[O-] (stereo not shown),4.17%
7,Cc1ccc(S(=O)(=O)N(CC(=O)N2CCOCC2)c2cccc(C)c2)cc1,1.57%
8,O=C(NCCCN1CCCC1=O)c1ccc(CNS(=O)(=O)c2ccc(Br)cc2)cc1,-5.22%
9,Brc1ccc(-c2nnnn2-c2ccccc2)cc1,-2.78%
10,CC1(C)CC(=O)C(/C=N/CCN2CCNC2=O)=C(O)C1,1.03% and -1.81%
11,CCOc1ccccc1NC(=O)COc1cc(Cl)ccc1Cl,4.59%
12,O=S(=O)(Nc1cc(Cl)ccc1Cl)c1ccc(F)cc1,-3.04%
13,Cc1ccc(C(=O)Nc2nc(COc3ccccc3)cs2)cc1,2.43%
14,COc1ccccc1NC(=O)CCCC(=O)Nc1ccccc1OC,-6.58%
15,COCCNC(=O)CCCc1nnc2n(C)c(=O)c3sccc3n12,-2.15%
16,CCOc1ccccc1C(=O)N(C(C)CC)C(C)CC (stereo not shown),-4.63%
17,CC(/N=c1\cc(O)oc2ccccc12)c1ccccc1 (stereo not shown),-5.36%
18,COc1ccc(C(NC(C)=O)c2ccc3cccnc3c2O)cc1 (stereo not shown),-6.93%
19,Cc1ccc2nc3c(cc(C(=O)NC4CCCCC4)c(=N)n3CCc3ccccc3)c(=O)n2c1,-3.27%
20,Cn1c(CSc2ncccn2)nnc1SCC(N)=O,6.77%
21,CCSc1nnc(-c2ccccc2)c2ccccc12,0.392%
22,COc1ccc(-c2nc(CS(=O)CC(=O)NCc3ccccn3)c(C)o2)cc1 (stereo not shown),2.37%
23,Cc1cc(NCc2ccccc2)c2ccc(Cl)cc2n1,2.36%
24,CCOc1ccccc1C1C2=C(CC(C)(C)CC2=O)N(CCC(=O)O)C2=C1C(=O)CC(C)(C)C2,-2.14%
